# The list shows a part of the results. Cleavage of a single-stranded DNA pool by Rep nickase domains was read by sequencing (1 h at 37 °C, 3 µM enzyme); the outer parts of the 90-letter strands are left off. Numbers give uncut DNA relative to the enzyme-free pool, as log2; strong cutting gives strongly negative numbers. There is no active / inactive call. Shares of all reads are compared; values above 0 arise when much of the pool is cut.
# Legend:
# Assay in all cases: uncleaved DNA left, log2 of reads against the no-enzyme library (log2 ratio); higher = less cleavage (more negative = more Rep cleavage of the k-mer); sequences stand for … in CTCGTCCG…ACCGGAGA
# [1] = system: T1, Rep nickase domain of Muscovy duck circovirus
# T1 sequence (protein, residues 1-111, tag omitted): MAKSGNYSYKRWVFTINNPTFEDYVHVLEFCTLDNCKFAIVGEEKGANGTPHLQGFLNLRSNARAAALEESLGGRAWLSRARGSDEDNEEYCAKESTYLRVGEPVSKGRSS
# Experimental: (§1)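 A pool of 90-nt single-stranded DNAs with seven random bases just before the constant AC of the nick site (name = the seven bases) was cut by 3 µM recombinant His6-SUMO-tagged Rep nickase domain (300 nM DNA, 50 mM HEPES pH 8.0, 50 mM NaCl, 1 mM MnCl2, 1 h, 37 °C, three replicates). Uncut DNA was amplified and sequenced.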
# [2] = system: T2, Rep nickase domain of banana bunchy top virus
# T2 sequence (protein, residues 1-94, tag omitted): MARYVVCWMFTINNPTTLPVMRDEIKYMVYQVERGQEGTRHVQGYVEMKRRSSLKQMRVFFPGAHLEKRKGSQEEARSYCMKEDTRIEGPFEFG
# Experimental: as §1
# [3] = system: T3, Rep nickase domain of cabbage leaf curl virus
# T3 sequence (protein, residues 1-116, tag omitted): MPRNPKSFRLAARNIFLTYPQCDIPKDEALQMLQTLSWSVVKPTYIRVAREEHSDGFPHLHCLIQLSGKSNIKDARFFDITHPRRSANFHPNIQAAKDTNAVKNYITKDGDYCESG
# Experimental: as §1
# [4] = system: T4, Rep nickase domain of chickpea chlorotic dwarf virus
# T4 sequence (protein, residues 1-124, tag omitted): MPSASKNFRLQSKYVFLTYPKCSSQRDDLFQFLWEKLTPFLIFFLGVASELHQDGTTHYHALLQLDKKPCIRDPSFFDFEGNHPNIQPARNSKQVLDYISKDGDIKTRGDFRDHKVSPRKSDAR
# Experimental: as §1
# [5] = system: T5, Rep nickase domain of faba bean necrotic yellows virus
# T5 sequence (protein, residues 1-98, tag omitted): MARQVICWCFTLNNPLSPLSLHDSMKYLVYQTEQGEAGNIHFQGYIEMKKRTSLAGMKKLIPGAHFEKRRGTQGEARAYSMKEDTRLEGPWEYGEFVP
# Experimental: as §1
# [6] = system: T6, Rep nickase domain of maize striate mosaic virus
# T6 sequence (protein, residues 1-117, tag omitted): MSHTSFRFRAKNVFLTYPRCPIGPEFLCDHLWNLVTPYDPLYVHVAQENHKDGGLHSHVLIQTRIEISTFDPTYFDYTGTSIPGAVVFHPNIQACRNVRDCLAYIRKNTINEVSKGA
# Experimental: as §1
# [7] = system: T7, Rep nickase domain of porcine circovirus 2
# T7 sequence (protein, residues 2-116, tag omitted): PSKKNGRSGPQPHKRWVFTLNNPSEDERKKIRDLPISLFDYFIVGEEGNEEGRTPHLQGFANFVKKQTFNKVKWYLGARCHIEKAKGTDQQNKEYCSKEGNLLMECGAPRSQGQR
# Experimental: as §1
# [8] = system: T8, Rep nickase domain of tomato golden mosaic virus
# T8 sequence (protein, residues 1-124, tag omitted): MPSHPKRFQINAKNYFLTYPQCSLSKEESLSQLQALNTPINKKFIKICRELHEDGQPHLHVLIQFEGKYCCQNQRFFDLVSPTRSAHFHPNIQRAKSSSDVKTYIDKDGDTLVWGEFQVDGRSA
# Experimental: as §1
# [9] = system: T9, Rep nickase domain of tomato yellow leaf curl virus
# T9 sequence (protein, residues 1-136, tag omitted): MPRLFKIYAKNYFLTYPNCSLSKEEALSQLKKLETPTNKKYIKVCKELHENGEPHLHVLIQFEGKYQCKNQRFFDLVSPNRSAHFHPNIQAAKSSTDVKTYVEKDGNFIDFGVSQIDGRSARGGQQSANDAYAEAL
# Experimental: as §1
# [10] = system: T10, Rep nickase domain of wheat dwarf virus
# T10 sequence (protein, residues 1-137, tag omitted): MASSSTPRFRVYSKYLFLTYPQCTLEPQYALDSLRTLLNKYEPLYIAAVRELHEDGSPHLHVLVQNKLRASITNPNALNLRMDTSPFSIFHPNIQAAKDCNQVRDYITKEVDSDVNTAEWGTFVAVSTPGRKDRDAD
# Experimental: as §1
Sequence,uncleaved DNA left (log2) [1],uncleaved DNA left (log2) [2],uncleaved DNA left (log2) [3],uncleaved DNA left (log2) [4],uncleaved DNA left (log2) [5],uncleaved DNA left (log2) [6],uncleaved DNA left (log2) [7],uncleaved DNA left (log2) [8],uncleaved DNA left (log2) [9],uncleaved DNA left (log2) [10]
GCCAAAA,-0.0503,0.0309,0.182,0.487,0.0147,0.0877,0.149,0.261,-0.0553,0.0294
GCCTTGG,0.0509,0.0716,-0.191,0.169,0.00872,-0.519,0.0726,0.047,0.024,-0.0148
CACGACG,-0.0273,-0.000132,-0.562,-0.496,0.0648,-0.939,0.154,-0.0446,0.0554,-0.0607
CCAATCG,-0.0467,0.00356,-0.812,-0.0213,-0.0368,-1.14,0.048,-0.0604,-0.147,-0.0881
TGCACCT,-0.105,-0.0388,-0.0956,-1.13,-0.0868,-0.151,-0.285,-0.179,-0.0366,-0.178
GGACTAC,0.0595,0.187,0.93,1.92,0.0441,2.28,0.128,0.0438,0.206,0.164
AAGTGCG,0.0547,-0.0168,-0.139,1.12,0.179,0.924,0.124,-0.00238,0.0918,0.0151
CAATCGA,0.0426,0.109,-0.768,-0.955,0.0122,-1.16,0.201,0.0477,0.0475,0.0505
TCCAGTT,-0.0701,-0.0978,-0.199,-1.68,0.0935,-0.533,-0.303,-0.122,-0.136,-0.322
GAAGGTG,-0.0209,-0.0522,0.116,0.491,-0.0163,0.465,0.0417,0.0169,-0.0899,0.0122
TGCCTCC,0.0418,-0.13,0.186,0.0131,-0.0766,0.568,-0.0977,-0.135,-0.0774,-0.0738
CGCGTAT,0.0229,-0.115,-0.114,-0.432,-0.0446,-0.409,-0.243,-0.114,-0.0264,-0.0198
TTCTCCT,-0.41,-0.204,-0.0413,-1.11,0.0548,0.715,-0.893,-0.29,-0.0247,-0.21
TAGGCAA,0.0428,0.145,0.41,0.493,-0.015,0.436,0.0308,0.184,0.137,0.173
GGCGTAC,0.0178,-0.0452,0.395,1.06,0.0487,1.56,0.0886,0.0375,-0.01,0.0945
TGCGACC,-0.00589,0.037,-0.177,0.315,0.0207,-0.496,0.0242,0.0339,0.0181,0.0317
AAGAAGG,0.0393,-0.0347,0.0224,0.396,0.0199,-0.398,-0.0178,0.0929,-0.0547,-0.0144
CAGTCCG,-0.0452,0.0272,-0.761,-0.0381,0.114,-0.764,-0.129,-0.132,0.0236,-0.149
GGTCGTT,0.00857,0.0187,0.664,1.36,-0.0241,1.86,0.0255,-0.12,0.0124,0.00566
GTAGTAA,-0.00928,0.0958,0.297,0.828,-0.043,1.74,0.0406,0.061,0.102,0.082

Sequence,uncleaved DNA left (log2) [1],uncleaved DNA left (log2) [2],uncleaved DNA left (log2) [3],uncleaved DNA left (log2) [4],uncleaved DNA left (log2) [5],uncleaved DNA left (log2) [6],uncleaved DNA left (log2) [7],uncleaved DNA left (log2) [8],uncleaved DNA left (log2) [9],uncleaved DNA left (log2) [10]
TTAGGAC,-0.187,0.0871,0.313,1.21,-0.0292,1.16,0.202,0.167,-0.0414,0.14
CACGGGA,0.122,0.127,0.387,0.713,0.0691,0.716,0.0391,0.0232,0.0259,0.0415
CCTTTGT,-0.0868,0.0824,-0.254,-0.829,0.22,-0.994,-0.437,-0.0738,0.0625,-0.0434
TCCGTGC,-0.0445,-0.0927,-0.302,-0.402,-0.0214,-0.728,0.185,-0.0217,-0.0466,-0.0642
ACGCGAC,0.0517,-0.0389,-0.312,0.0493,-0.0135,-0.815,0.161,0.0423,0.0694,-0.0622
ACCTCTG,-0.144,-0.0943,-0.51,-0.246,-0.0964,-0.689,0.00834,-0.0954,0.0536,-0.142
ATAGGGT,0.07,0.108,0.329,1.58,0.0547,1.9,0.149,0.155,-0.0991,0.0584
TAACCCC,-0.579,-0.182,-1.36,-2.53,-0.127,-0.685,-1.5,-0.185,-0.0775,-0.479
AATCTAA,0.0103,0.157,-0.064,-0.485,0.0143,-0.438,-0.0438,0.0699,0.0803,0.0846
TATACTG,0.00597,-0.0419,0.0352,0.354,0.04,1.09,0.0227,0.0109,-0.0941,-0.0576
TAAACTT,-1.36,-0.798,-4.41,-3.38,-0.0603,-2.8,-3.84,-3.65,-0.182,-3.62
CAGTTCA,-0.208,-0.54,-0.306,-2.62,-0.919,-0.834,-2.99,-0.136,-0.0912,-0.095
CTATCTG,-0.108,-0.0943,-0.0816,0.192,-0.0815,-0.0444,-0.0287,-0.077,-0.0644,-0.0103
GGGGGAG,-0.067,-0.0174,0.753,1.76,-0.0661,2.09,0.175,-0.0523,0.0143,0.0398
TCTGAAA,0.000394,0.0844,0.157,0.26,0.13,-0.0805,0.116,0.0776,-0.0293,0.0795
ACATCCT,-0.349,-0.00243,-0.235,-2.13,0.0395,-0.27,-0.548,-0.0375,-0.153,0.0551
CCCTCGG,0.0701,-0.0119,0.559,1.42,0.142,1.67,0.113,0.135,-0.145,-0.019
TCGGGAG,-0.024,-0.057,-0.123,0.0538,-0.00628,-0.421,0.151,0.124,0.112,-0.121
CCATGTC,-0.0383,-0.134,-0.37,-0.422,-0.0287,-1.28,-0.0572,-0.127,-0.00871,-0.237
TGAGCGT,0.0265,-0.0848,-0.413,-0.487,0.092,-0.925,0.0498,-0.0246,-0.0336,-0.158

Sequence,uncleaved DNA left (log2) [1],uncleaved DNA left (log2) [2],uncleaved DNA left (log2) [3],uncleaved DNA left (log2) [4],uncleaved DNA left (log2) [5],uncleaved DNA left (log2) [6],uncleaved DNA left (log2) [7],uncleaved DNA left (log2) [8],uncleaved DNA left (log2) [9],uncleaved DNA left (log2) [10]
GGGGTGG,0.0739,0.0322,0.713,1.54,0.00433,1.97,0.18,0.0721,0.0158,0.0411
CTGATGA,0.0599,-0.0303,-0.114,-0.0356,-0.0477,-0.859,0.0935,0.00735,-0.0879,-0.0339
CAGAAGT,0.192,0.00629,0.0465,-0.351,0.0731,-0.754,-2.9,0.206,0.193,0.146
GCTGCAT,-0.00918,0.0422,0.0385,0.591,-0.0803,0.36,-0.0686,-0.0265,-0.062,-0.00986
AATGACT,0.0938,0.0064,0.0908,-0.596,0.0312,0.689,-0.011,0.0502,0.0266,0.156
GTCAATC,0.00682,0.0567,0.293,0.992,-0.0395,1.62,0.026,0.0876,0.165,0.0973
CTAATAA,-0.00135,0.228,0.0178,-0.314,0.122,-0.658,0.23,0.0805,0.0921,0.213
AGCGTTC,-0.061,0.0311,-0.059,0.221,-0.0238,0.242,-0.179,-0.0198,-0.025,-0.0299
TGGTTTG,0.0246,-0.0316,0.00845,0.945,0.0663,0.568,0.0233,0.0719,0.00546,-0.0203
TGATCAA,0.142,0.188,0.735,1.27,0.0924,1.51,0.11,0.0593,0.0921,0.215
ATTGGAG,0.113,0.117,-0.245,0.0676,0.215,-0.775,0.39,0.0922,0.0887,0.162
ACCCGGA,0.0767,0.0242,0.309,0.741,0.118,0.0278,0.137,0.113,-0.0529,0.0986
GCCCAGC,0.105,0.0977,-0.0535,0.224,0.232,-0.387,0.249,0.108,0.135,0.127
GTAAATT,0.024,0.0986,0.253,0.548,0.0283,1.67,0.0248,0.0915,0.0958,-0.0104
TGATTTC,0.0931,0.125,0.438,0.629,0.081,0.856,0.104,0.212,0.0824,0.0966
GTCGGAT,0.0213,0.014,0.206,1.41,0.044,1.83,0.215,0.069,-0.108,-0.0831
GTTATGT,0.0185,0.115,0.342,0.782,-0.103,1.51,0.121,0.0769,0.0695,-0.00197
GGAACTG,0.121,0.198,0.207,1.08,-0.0021,1.8,0.206,0.108,0.0331,0.12
TACGTTA,-0.0224,-0.119,-0.223,-2.43,0.0498,-0.477,-0.24,-0.0757,-0.154,-0.205
TCCTTTC,0.0172,-0.00353,0.0111,-0.128,-0.0317,-0.928,-0.163,-0.142,-0.173,-0.0958

# Reference: the supplement of paper PMC7826260
